# Measurements from the supplement of paper PMC8183993.
# Where “and” joins values, the source holds several entries; their conditions need not be identical. Identical values can stand only once. Counter-ions that a name gives are not always drawn. ± gives the standard deviation of the averaged measurements. Over roughly 3,200 compounds, “nuclei count (viability) relative to DMSO” has its median near 99; the lowest 2% begin near 16. The list shows a part of the results.
# Test system: U2OS
# Experiment: nuclei count (viability) relative to DMSO (% of DMSO); higher = more viable cells
# Conditions: 10 µM; 24 h
# Protocol: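 Primary image-based screen in U2OS cells: compounds at 10 uM for 24 h, then a 1 h o-propargyl-puromycin (OPP) pulse, click labelling, and high-throughput microscopy. Mean cytoplasmic OPP intensity and nuclei count were normalised to DMSO wells within each plate (DMSO = 100) and averaged over triplicate plates.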
row,SMILES,nuclei count
1,C[C@]12C=CC(=O)C=C1CC[C@@H]1C2=CC[C@]2(C)[C@@H](C(=O)CN3CCN(c4cc(N5CCCC5)nc(N5CCCC5)n4)CC3)CC[C@@H]12,99.7
2,C=CCn1c(=O)n([C@@H]2O[C@H](CO)[C@@H](O)[C@H]2O)c2nc(N)[nH]c(=O)c21,98.2
3,C[C@]12C=CC(=O)C=C1CC[C@@H]1[C@@H]2C(=O)C[C@@]2(C)[C@H]1CC[C@]2(O)C(=O)CO [Prednisone (Adasone)],102
4,C[C@]12C=CC(=O)C=C1CC[C@@H]1[C@@H]2C(=O)C[C@@]2(C)[C@H]1CC[C@]2(O)C(=O)CO [Prednisone],101
5,Nc1ncnc2nc(-c3ccc(N4CCOCC4)nc3)cc(-c3cccc(Br)c3)c12 [ABT 702 dihydrochloride],105
6,CC1(C)[C@@H](O[C@H]2O[C@H](C(=O)O)[C@@H](O)[C@H](O)[C@H]2O[C@@H]2O[C@H](C(=O)O)[C@@H](O)[C@H](O)[C@H]2O)CC[C@]2(C)[C@H]3C(=O)C=C4[C@@H]5C[C@@](C)(C(=O)O)CC[C@]5(C)CC[C@@]4(C)[C@]3(C)CC[C@@H]12 [Ammonium Glycyrrhizinate (AMGZ)],101
7,CC1(C)[C@@H](O[C@H]2O[C@H](C(=O)O)[C@@H](O)[C@H](O)[C@H]2O[C@@H]2O[C@H](C(=O)O)[C@@H](O)[C@H](O)[C@H]2O)CC[C@]2(C)[C@H]3C(=O)C=C4[C@@H]5C[C@@](C)(C(=O)O)CC[C@]5(C)CC[C@@]4(C)[C@]3(C)CC[C@@H]12 [Glycyrrhizic acid],101
8,CNC(=C[N+](=O)[O-])NCCSCc1csc(CN(C)C)n1 [Nizatidine],92.8
9,O=C(O)C1=CCNCC1 [Isoguvacine hydrochloride],106
10,CCC1=C[C@@H]2CN(C1)Cc1c([nH]c3ccccc13)[C@@](C(=O)OC)(c1cc3c(cc1OC)N(C)[C@H]1[C@@](O)(C(=O)OC)[C@H](OC(C)=O)[C@]4(CC)C=CCN5CC[C@]31[C@@H]54)C2 [Vinorelbine (Navelbine)],16.1
11,CCn1c(=O)[nH]c2ccccc21,93.4
12,CC(C)CN(C[C@@H](O)[C@H](Cc1ccccc1)NC(=O)O[C@H]1CCOC1)S(=O)(=O)c1ccc(N)cc1 [Amprenavir (Agenerase)],112
13,C=CC(=O)Nc1cccc(Nc2nc(Nc3ccc(NC4CN(CCF)C4)cc3OC)ncc2C(F)(F)F)c1,20.7
14,COc1cc(C)nc(-n2nc(C)cc2OC)n1 [Epirizole],102
15,CS(=O)(=O)Nc1ccc([N+](=O)[O-])cc1Oc1ccccc1 [Nimesulide],103 ± 6.9
16,CCn1cc(C(=O)O)c(=O)c2cc(F)c(N3CCNC(C)C3)c(F)c21 (stereo not given) [Lomefloxacin hydrochloride],98.5
17,O=c1[nH]c(=O)n([C@H]2C[C@H](O)[C@@H](CO)O2)cc1F [Floxuridine (Fludara)],81.6
18,O=c1[nH]c(=O)n([C@H]2C[C@H](O)[C@@H](CO)O2)cc1F [Floxuridine],66.8
19,CNNCc1ccc(C(=O)NC(C)C)cc1 [Procarbazine hydrochloride],114
20,CC(C)CC(NC(=O)OCC1c2ccccc2-c2ccccc21)C(=O)O (stereo not given),96.9
21,C[N+]1(C)CCC(=C(c2ccccc2)c2ccccc2)CC1 [Diphemanil methylsulfate],98.1
22,COc1cc(/C=C/C(=O)O)ccc1O [Fumalic acid (Ferulic acid)],110
23,O=C(NC1CCOCC1)c1ccc(-c2cc(-c3c[nH]nc3-c3ccccn3)ccn2)cc1,105
24,O=C1C(=O)N(Cc2ccc(Cl)c(Cl)c2)c2ccccc21 [Apoptosis Activator 2],54.2

row,SMILES,nuclei count
1,NS(=O)(=O)c1cc2c(cc1Cl)NCNS2(=O)=O [Hydrochlorothiazide],109
2,O=C1c2cccc(O)c2C(=O)c2c(O)cc(CO)cc21 [Aloe-emodin],96.3
3,CN(C)CCC=C1c2ccccc2C=Cc2ccccc21 [Cyclobenzaprine hydrochloride],81.6
4,CN(C)CCc1c[nH]c2ccc(C[C@H]3COC(=O)N3)cc12 [Zolmitriptan (Zomig)],99
5,CC(C)(F)C[C@H](N[C@@H](c1ccc(-c2ccc(S(C)(=O)=O)cc2)cc1)C(F)(F)F)C(=O)NC1(C#N)CC1 [Odanacatib (MK 0822)],86.6
6,COc1cc(C)c(/C=C/C(C)=C/C=C/C(C)=C/C(=O)O)c(C)c1C [Acitretin],95.1 ± 8.5
7,C[C@H](NC(=O)[C@@H]1CCCN1C(=O)[C@@H]1CCCN1C(=O)[C@@H](O)[C@H](N)Cc1ccccc1)C(N)=O [Apstatin],99.4
8,CC(c1cc2ccccc2s1)N(O)C(N)=O (stereo not given) [Zileuton],106
9,Nc1ccc(-c2cccc3c(=O)cc(N4CCOCC4)oc23)cc1,80.5
10,CC[N+](C)(CC)CC(=O)Nc1c(C)cccc1C [N-Methyllidocaine iodide],98.4
11,C[C@@H]1C(=O)O[C@H]2C[C@@]34[C@H]5C[C@@H](C(C)(C)C)[C@]36[C@@H](OC(=O)[C@@H]6O)O[C@@]4(C(=O)O5)[C@]21O [Ginkgolide A],96.3
12,CC(=O)Oc1cc(C(C)C)c(OCCN(C)C)cc1C [Moxisylyte hydrochoride],99.6
13,CC1=C(/C=C/C(C)=C/C=C/C(C)=C/C(=O)Nc2ccc(O)cc2)C(C)(C)CCC1 [Fenretinide],86.8
14,NC(=O)c1ncn([C@@H]2O[C@H](CO)[C@@H](O)[C@H]2O)c1N [Acadesine],107 ± 7.9
15,NC(=O)c1ncn([C@@H]2O[C@H](CO)[C@@H](O)[C@H]2O)c1N,103
16,CCCCC(=O)O[C@]1(C(=O)CO)[C@@H](C)C[C@H]2[C@@H]3CCC4=CC(=O)C=C[C@]4(C)[C@@]3(F)[C@@H](O)C[C@@]21C [Betamethasone valerate (Betnovate)],109
17,CC(=O)OCC(=O)[C@@]1(O)CC[C@H]2[C@@H]3CCC4=CC(=O)C=C[C@]4(C)[C@@]3(F)[C@@H](O)C[C@@]21C [Isoflupredone acetate],105
18,CC(=O)OCC(=O)[C@@]1(O)CC[C@H]2[C@@H]3CCC4=CC(=O)CC[C@]4(C)[C@H]3C(=O)C[C@@]21C [Cortisone acetate (Cortone)],108
19,Cn1cc(C(=O)OCC2CCN(CCNS(C)(=O)=O)CC2)c2ccccc21,102
20,C#C[C@]1(O)CC[C@H]2[C@@H]3[C@H](C)CC4=C(CCC(=O)C4)[C@H]3CC[C@@]21C [Tibolone],97.4
21,OC[C@@H](O)[C@@H](O)[C@H](O)[C@@H](O)CO [Sorbitol (Glucitol)],104
22,C[C@@H](CN1CCC(n2c(=O)[nH]c3cc(Cl)ccc32)CC1)NC(=O)c1ccc2ccccc2c1,101
23,O=C(O)COc1cccc(-c2ocnc2-c2nc(-c3ccccc3)c(-c3ccccc3)o2)c1,105
24,O=C1c2c(O)cc(O)cc2OC(c2ccc(O)c(O)c2)C1O (stereo not given) [Taxifolin (Dihydroquercetin)],90.7

row,SMILES,nuclei count
1,CN(C)CCCOc1nn(Cc2ccccc2)c2ccccc12 [Benzydamine hydrochloride],109
2,COc1ccc(Nc2nccc(NCCO)n2)cc1 [Cardiogenol C hydrochloride],90.8
3,FC(F)(F)c1ccc(/C=C/c2nc(COc3ccc(CCCCn4ccnn4)cc3)co2)cc1 [Mubritinib (TAK 165)],109
4,FC(F)(F)c1ccc(/C=C/c2nc(COc3ccc(CCCCn4ccnn4)cc3)co2)cc1,100
5,CC(C)NCCN(C(C)C)S(=O)(=O)c1ccc(Cl)cc1Cl,79.5
6,O=C1c2ccccc2C(=O)c2c(NCCc3ccc(O)cc3)ccc(NCCc3ccc(O)cc3)c21,97.1
7,Nc1ccn(C[C@@H](CO)OCP(=O)(O)O)c(=O)n1 [Cidofovir (Vistide)],101
8,CNC(=O)c1nn(C)c2c1C(C)(C)Cc1cnc(Nc3ccc(N4CCN(C)CC4)cc3)nc1-2,54.8 and 36.4
9,CC(C)(O)CC[C@@H](O)[C@](C)(O)[C@H]1CC[C@@]2(O)C3=CC(=O)[C@@H]4C[C@@H](O)[C@@H](O)C[C@]4(C)[C@H]3CC[C@]12C [20-Hydroxyecdysone],94.5
10,Cc1ccc(/C=N/NC(=O)c2ccccc2Oc2ccccc2)o1,95.7 and 104
11,Nc1ccc(S(=O)(=O)Nc2ccc(Cl)nn2)cc1 [Sulfachloropyridazine],104
12,COc1cc2nc(N3CCN(C(=O)C4CCCO4)CC3)nc(N)c2cc1OC (stereo not given) [Terazosin hydrochloride],93.3 ± 9.9
13,CN1CCN(c2cccc(Nc3nc4c(-c5ccc(S(C)(=O)=O)cc5)cccn4n3)c2)CC1,95.2 ± 2.6
14,Oc1ccc(O)cc1 [Hydroquinone],64.9
15,CC1(CN2CCC(n3c(=O)[nH]c4ccccc43)CC2)OCc2ccccc2-n2cccc21 (stereo not given),84.2
16,NC(=O)c1noc([C@H](CCCC2CCCCC2)CC(=O)NO)n1,84.7
17,COc1ccc(CCN(C)CCc2ccc(OC)c(OC)c2)cc1OC,83.3
18,COc1ccc(CCN(C)CCc2ccc(OC)c(OC)c2)cc1OC [YS-035 hydrochloride],108
19,CC(=O)O[C@]1(C(C)=O)CC[C@H]2[C@@H]3C=C(C)C4=CC(=O)CC[C@@H]4[C@H]3CC[C@@]21C [Nomegestrol acetate],102
20,CC[C@@]1(O)C(=O)OCc2c1cc1n(c2=O)Cc2cc3cc(O)ccc3nc2-1 [10-Hydroxycamptothecin],43
21,CC(C)Oc1cccc(-n2c(CCc3c[nH]c4ccc(Br)cc34)nc3ccccc3c2=O)c1,106
22,"CCCn1c(=O)c2[nH]c(-c3ccccc3)nc2n(CCC)c1=O [1,3-Dipropyl-8-phenylxanthine]",98.9
